{
  "source": "PubChem BioAssay AID1347417",
  "about": "(National Center for Advancing Translational Sciences (NCATS), 2020)",
  "note": "Among all 120,000 compounds or so, about 5,300 (4.4%) were called active. Inconclusive results, whose numbers are uncertain, are shown with a selection of clear calls. Calls come from the whole dose curve; as a rule, active = well fitted inhibition curve with a large enough effect; inconclusive = small, poorly fitted or top-dose-only effect; inactive = no such curve, though single readings can be large or run the other way. Potencies beside an inconclusive call are fits to weak or partial responses and may not hold up. Potency is the fitted concentration of half-maximal effect; tags give direction and shape of the fitted curve.",
  "data": [
    {"assay": "qHTS Primary assay for Inhibitors of Plasmodium falciparum Dd2 growth in vitro; note: nearly all actives have a fitted effect of over 65% in size;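 for activity, negative = inhibition: plate controls were DMSO vehicle for no effect and reference drug for full effect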", "details": "P. falciparum Dd2 growth, SYBR Green, 72 h; activity, negative = inhibition: at 28.9 µM (top of the series) unless noted; series mostly up to 28.9 µM", "outline": "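Infected erythrocytes (Dd2, 0.3% parasitemia, 2.5% hematocrit final) are added to compound in RPMI-1640/Albumax II medium, grown 72 h at 37C in low oxygen, then lysed with saponin/Triton-X containing SYBR Green and read by fluorescence.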", "values": [
      {"smiles": "O=C(NCc1ccccn1)c1cccc(OC2CCN(c3cnccn3)CC2)c1", "activity, negative = inhibition": "inactive: -10.1%"},
      {"smiles": "CCOCCCn1c(=N)c(C(=O)NCc2ccco2)cc2c(=O)n3ccccc3nc21", "Potency": "inconclusive: 17.8 µM [inhibitor, single point]"},
      {"smiles": "COCCCNc1nc2c(-c3ccccc3)nnn2c2ccccc12", "Potency": "active: 7.94 µM"},
      {"smiles": "CC(C)N1C[C@H](O)C[C@H]1c1nnc2n1CCN(C(=O)CCCc1c[nH]c3ccccc13)C2", "Potency": "inconclusive: 10 µM [inhibitor, single point]"},
      {"smiles": "O=C(Nc1cccc(F)c1)Nc1ccc2n(c1=O)C[C@H]1C[C@@H]2CN(C(=O)c2ccc(F)cc2)C1", "Potency": "inconclusive: 0.708 µM [inhibitor, full curve]"},
      {"smiles": "Cc1ccc(CN2CCOC[C@H]2c2ncc(C(C)(C)C)[nH]2)cc1", "Potency": "inconclusive: 1.12 µM [inhibitor, full curve]"},
      {"smiles": "CCNC(=O)NC[C@H]1C[C@@H]2CCN1C[C@@H]2c1cc(-c2ccc(OC)c(OC)c2)nn1C", "Potency": "inconclusive: 12.6 µM [inhibitor, partial curve, poor fit]"},
      {"smiles": "O=C(NCCC1=CCCCC1)c1ccc2c(c1)N(Cc1ccc(F)cc1)C(=O)c1ccccc1S2(=O)=O", "Potency": "inconclusive: 11.2 µM [inhibitor, partial curve, poor fit]"},
      {"smiles": "Nc1c(C(=O)Nc2cccc(Cl)c2)sc2nc3c(cc12)CN(Cc1ccccc1)CC3", "Potency": "inconclusive: 10 µM [inhibitor, single point]"},
      {"smiles": "CCOC(=O)c1c(NC(=O)C(C)Sc2cn(CCNC(=O)c3ccc(OC)c(OC)c3)c3ccccc23)sc2c1CCC2", "note": "(configuration not stated)", "Potency": "inconclusive: 8.91 µM [inhibitor, partial curve, poor fit]"},
      {"smiles": "COc1ccccc1CN1CCCC(c2[nH]ccc2C(N)=O)C1", "note": "(configuration not stated)", "Potency": "inconclusive: 17.8 µM [inhibitor, single point]"},
      {"smiles": "COc1cccc(-n2c(=O)c3sc4ccccc4c3n(CC(=O)Nc3ccc(F)cc3F)c2=O)c1", "Potency": "inconclusive: 10 µM [inhibitor, single point]"},
      {"smiles": "COc1cc(NC(=O)CSc2nc(C)c(C(=O)Nc3ccccc3)c(-c3ccc(OC)c(OC)c3)c2C#N)c(OC)cc1Cl", "Potency": "inconclusive: 7.08 µM [inhibitor, partial curve, poor fit]"},
      {"smiles": "Cc1cc(Nc2sc(C(=O)c3ccc(F)cc3)c(N)c2C(=O)Nc2ccc(F)cc2)ccc1Cl", "Potency": "inconclusive: 1.26 µM [inhibitor, full curve, poor fit]"},
      {"smiles": "COc1ccc(N2CC3=C(C2=O)C(c2ccc(Br)cc2)NC(=O)N3C)cc1", "note": "(configuration not stated)", "Potency": "inconclusive: 17.8 µM [inhibitor, single point]"},
      {"smiles": "Cc1ccc(Cl)cc1N1CCN(CCCNc2ncnc3onc(-c4ccc(F)cc4)c23)CC1", "Potency": "inconclusive: 11.2 µM [inhibitor, single point]"},
      {"smiles": "Cc1ccc(NC(=O)N2CCC(N3C(=O)C4(CCCCC4)C3c3ccncc3)CC2)cc1C", "note": "(configuration not stated)", "Potency": "inconclusive: 1.12 µM [inhibitor, full curve]"},
      {"smiles": "COc1ccc(C)cc1NC(=O)c1ccc2c(c1)N(C)C1CCCN1C2=O", "note": "(configuration not stated)", "outcome": "inactive"},
      {"smiles": "Cc1ccc(-c2nnc(Nc3ccc(O)cc3)c3ccccc23)cc1S(=O)(=O)NCc1nc2ccccc2[nH]1", "Potency": "inconclusive: 17.8 µM [inhibitor, single point]"},
      {"smiles": "CCOC(=O)c1c(C)sc(-c2c(-c3ccc4c(c3)OCCO4)[nH]c3c2c(=O)[nH]c(=O)n3C)c1O", "Potency": "inconclusive: 10 µM [inhibitor, single point]"},
      {"smiles": "Cc1noc(CN2CCc3nc(-c4ccc(F)cc4F)[nH]c3C2)n1", "activity, negative = inhibition": "inactive: -6.86%"},
      {"smiles": "Cc1ccc(C(=O)N2CC(Oc3ccc(F)cc3F)C2)cc1", "activity, negative = inhibition": "inactive: 3.34%"},
      {"smiles": "O=C(NCc1c[nH]c2ncccc12)C1CCCC1", "Potency": "inconclusive: 17.8 µM [inhibitor, single point]"},
      {"smiles": "CS(=O)(=O)N1CC2(CCCN2Cc2cccc(C(N)=O)c2)Cc2ccccc21", "note": "(configuration not stated)", "Potency": "active: 14.1 µM"},
      {"smiles": "COc1ccc2nc([C@H]3CCN(Cc4ccccc4)C3)[nH]c2c1", "Potency": "inconclusive: 12.6 µM [inhibitor, partial curve, poor fit]"},
      {"smiles": "Cc1ccccc1C(=O)NCC(c1cccnc1)N1CCc2ccccc21", "note": "(configuration not stated)", "Potency": "inconclusive: 17.8 µM [inhibitor, single point]"},
      {"smiles": "CCCCCCN(CCC(=O)NCc1ccccc1)C(=O)c1ccoc1", "activity, negative = inhibition": "inactive: -0.775%"},
      {"smiles": "CC(C)CNC(=O)C1COC2(CCCCC2)N1C(=O)c1cccc([N+](=O)[O-])c1", "note": "(configuration not stated)", "Potency": "inconclusive: 5.01 µM [inhibitor, partial curve, poor fit]"},
      {"smiles": "CN(C)c1cc(N2CCCC(NC(=O)c3ccnn3C)C2)ncn1", "note": "(configuration not stated)", "activity, negative = inhibition": "inactive: 22.1% [at 5.79 µM]"},
      {"smiles": "CN(Cc1ccccc1)c1ncc2c(n1)CC(C)(C)CC2NC1CCOCC1", "note": "(configuration not stated)", "outcome": "inactive"},
      {"smiles": "CSCCC(NS(=O)(=O)c1ccc2c(c1)oc(=O)n2C)C(=O)N1CCN(c2cc(Cl)ccc2C)CC1", "note": "(configuration not stated)", "Potency": "inconclusive: 10 µM [inhibitor, single point]"},
      {"smiles": "COc1ccc(NC(=O)CSc2oc(-c3ccc(C)cc3)nc2S(=O)(=O)c2ccc(C)cc2)c(OC)c1", "Potency": "inconclusive: 11.2 µM [inhibitor, single point]"},
      {"smiles": "Cc1ccc(-c2nc(C(=O)NCCc3ccc(S(N)(=O)=O)cc3)no2)cc1", "activity, negative = inhibition": "inactive: -27.6%"},
      {"smiles": "CCC(C)NC(=O)C(NC(=O)c1ccc(OC)cc1)C1CCN(C(=O)c2cccc(OC)c2)CC1", "note": "(configuration not stated)", "Potency": "inconclusive: 0.316 µM [inhibitor, partial curve, poor fit]"},
      {"smiles": "Cc1ccc(-c2nc3sccn3c2Nc2ccccc2C)cc1", "Potency": "inconclusive: 11.2 µM [inhibitor, single point]"},
      {"smiles": "CCn1cc(C(=O)NCc2ccccc2)c(=O)c2cc(S(=O)(=O)N3CCCCC3)ccc21", "Potency": "inconclusive: 12.6 µM [inhibitor, single point]"},
      {"smiles": "Cc1cc(Nc2cccc(C(F)(F)F)c2)ncn1", "activity, negative = inhibition": "inconclusive: -36.4% [inhibitor] [at 0.594 µM]"},
      {"smiles": "CN(C)C(=O)C1CCc2nnc(-c3ccc(Cl)nc3)n21", "note": "(configuration not stated)", "activity, negative = inhibition": "inactive: 16.1% [at 44.1 µM]"},
      {"smiles": "Cc1ccc2nc(-c3ccncc3)c(Nc3ccccc3C)n2c1", "activity, negative = inhibition": "inactive: -22.4%"},
      {"smiles": "COc1ccc(OCC2CCN(CC3(O)CCCNC3)CC2)cc1", "note": "(configuration not stated)", "Potency": "active: 12.6 µM"},
      {"smiles": "Cc1cnc(CC2CCN(S(=O)(=O)c3ccccc3)CC2)n1Cc1ccccc1", "Potency": "active: 0.562 µM"},
      {"smiles": "Cc1ccc(CNC(=O)C2(CCO)CCN(Cc3ccccc3)C2)o1", "note": "(configuration not stated)", "Potency": "inconclusive: 6.31 µM [inhibitor, partial curve, poor fit]"},
      {"smiles": "COc1ccc(-c2cnc3[nH]cc(CC(=O)N(C)C)c3c2)cc1", "Potency": "inconclusive: 31.6 µM [inhibitor, single point]"},
      {"smiles": "Cc1cc(C)c2c(-n3cccc3)c(C(=O)NCCCN3CCCCC3)sc2n1", "Potency": "inconclusive: 10 µM [inhibitor, single point]"},
      {"smiles": "COc1ccccc1-c1cc(NCc2cccnc2)c2onc(C)c2n1", "outcome": "inactive [at 44.1 µM]"},
      {"smiles": "CCN1CCN(Cc2nc3cc(NC(=O)c4ccccc4[N+](=O)[O-])ccc3n2CC)CC1", "Potency": "inconclusive: 7.94 µM [inhibitor, single point]"},
      {"smiles": "CC[C@H]1CN(C(=O)c2ccnc(Cl)c2)CC[C@H]1CC(=O)NCc1ccccc1", "activity, negative = inhibition": "inactive: -4.52% [at 44.1 µM]"},
      {"smiles": "COC[C@@H]1CN(C(=O)CCn2nc(C)cc2C)C[C@H]1c1ccncc1", "Potency": "inconclusive: 3.98 µM [inhibitor, single point]"},
      {"smiles": "O=C(NCC1CC1)c1nc2c(o1)CCN(Cc1cccc(F)c1F)CC2", "activity, negative = inhibition": "inactive: -18.3% [at 44.1 µM]"},
      {"smiles": "Cc1noc(C)c1[S+](=O)([O-])N1CCC2(C1)OC(=O)Nc1ccccc12", "note": "(configuration not stated)", "outcome": "inactive"},
      {"smiles": "COc1cccc(-c2nc(-c3c(C)noc3C)cc3[nH]c(C)cc23)c1OC", "Potency": "inconclusive: 5.62 µM [inhibitor, single point]"},
      {"smiles": "CCC(C)NC(=O)CN1CN(c2ccccc2)C2(CCN(C(=O)c3ccccc3OC)CC2)C1=O", "note": "(configuration not stated)", "outcome": "inactive"},
      {"smiles": "COc1ccc(NC(=O)CCC2CCN(C(=O)c3ccc(OC)o3)CC2)c(OC)c1", "outcome": "inactive"},
      {"smiles": "Cc1ccc(C)c(CN2C(=O)c3ccccc3Sc3ccc(C(=O)NCc4cccs4)cc32)c1", "Potency": "inconclusive: 15.8 µM [inhibitor, single point]"},
      {"smiles": "COC[C@@H]1CN(Cc2ccc3[nH]ccc3c2)C[C@H]1c1nc(C)no1", "Potency": "inconclusive: 2.51 µM [inhibitor, full curve, poor fit]"},
      {"smiles": "COc1ccc(-c2noc(-c3cccn3CC(=O)Nc3ccc(C)cc3Cl)n2)cc1F", "Potency": "inconclusive: 0.0891 µM [inhibitor, full curve, poor fit]"},
      {"smiles": "CCC(=O)N1CCCCCCn2c(nnc2-c2ccc(F)cc2)CC1", "activity, negative = inhibition": "inactive: -7.92%"},
      {"smiles": "Cn1cccc1C(=O)NCC1(C)CCOCC1", "activity, negative = inhibition": "inactive: 20.1%"},
      {"smiles": "COc1ccc(CN2CC3(CCN(C(=O)Nc4ccc(C)c(C)c4)CC3)C2=O)cc1", "outcome": "inactive"},
      {"smiles": "CN(Cc1ccccc1)C(=O)c1ccc2c(c1)NC(C)(CCCCN1CCOCC1)CO2", "note": "(configuration not stated)", "Potency": "inconclusive: 8.91 µM [inhibitor, partial curve, poor fit]"},
      {"smiles": "COc1ccc(Cn2c(C3CCN(C(=O)Cc4ccccc4)CC3)n[nH]c2=O)cc1", "activity, negative = inhibition": "inactive: -4.82%"},
      {"smiles": "CNC(=O)c1cc(S(=O)(=O)N2CCn3nc(CO)cc3C2)cs1", "activity, negative = inhibition": "inactive: -13.4%"},
      {"smiles": "O=C1NC2(CCN(Cc3ccc(F)cc3)CC2)Oc2ccccc21", "Potency": "active: 10 µM"},
      {"smiles": "COc1ccc(-c2cc(N3CCN(C(=O)c4cc(F)ccc4Cl)CC3)n[nH]2)cc1", "Potency": "inconclusive: 20 µM [inhibitor, single point]"},
      {"smiles": "C1=C(CCNc2ncncc2-c2nc(-c3ccccc3)no2)CCCC1", "Potency": "inconclusive: 3.98 µM [inhibitor, partial curve, poor fit]"},
      {"smiles": "CCOc1ccccc1CNC(=O)c1ccc(CN2C(=O)NC3(CCOCC3)C2=O)cc1", "outcome": "inactive"},
      {"smiles": "CCCS(=O)(=O)N(C)C1CCc2nn(CC3CC3)c(=O)n2CC1", "note": "(configuration not stated)", "Potency": "inconclusive: 3.98 µM [inhibitor, single point]"}
    ]}
  ]
}
